This note sets out measurements from the supplement of paper PMC7125110.

± gives the standard error. Variants at the floor of the assay are shown more often than the library holds them.

B1: glmS ribozyme (parent)
chain: AUAAAAGCGCCAGAACUACAGAAAUGUAGUUGACGAGGAGGAGGUUUAUCGAAUUUUCGGCGGAUGCCUCCAAA

In one data set the parent is B1. The data set can be described thus: self-cleavage kobs at 160 uM GlcN6P; higher = faster cleavage; RNA array. Conditions: with glucosamine-6-phosphate. The gist of the method: (§1)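 Glucosamine-6-phosphate in HEPES/KCl/Mg(OAc)2 buffer, at 40 μM to 10 mM, was flowed over barcoded ribozyme variants transcribed in situ by E. coli RNA polymerase on sequenced MiSeq chips. Tracking was through a hybridised Cy3 probe at 37 °C. kobs, kcat and KM came from exponential decay fits and weighted Michaelis–Menten fits of normalised per-tile medians.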
As for A36U G41A C50A, the “self-cleavage kobs at 160 uM GlcN6P” value was less than 1e-05 s⁻¹.
On the same count and under the same terms, with G32A A33U the figure was less than 1e-05 s⁻¹; with G9U G32C G51C C58U, less than 1e-05 s⁻¹.
Still for that read-out and setting: with C11G U47G the figure was less than 1e-05 s⁻¹; with G29A G32A G62U, less than 1e-05 s⁻¹.
The same measure, in the same setting: under A14U C16G A33G G37A stands less than 1e-05 s⁻¹.
For C16U G32A C34A G41A A42U U49C G60A C68U U69G, the “self-cleavage kobs at 160 uM GlcN6P” value was less than 1e-05 s⁻¹.
The same measure, in the same setting: with U45G U65C the figure was less than 1e-05 s⁻¹; with G40U G41C U57C C58G, less than 1e-05 s⁻¹; with C10G G43U U46G C50U A52G, less than 1e-05 s⁻¹.
The same measure, in the same setting: under A12G G32C G35C A39C G51U C71A stands less than 1e-05 s⁻¹; under G51U G62U A64C, less than 1e-05 s⁻¹; under G38U G43A C58G U65C, less than 1e-05 s⁻¹.
U45G U47C C61U: the “self-cleavage kobs at 160 uM GlcN6P” value was less than 1e-05 s⁻¹.
With G40C U69A, the “self-cleavage kobs at 160 uM GlcN6P” value was less than 1e-05 s⁻¹.
On to G9U G32C C71A, for which the “self-cleavage kobs at 160 uM GlcN6P” value was less than 1e-05 s⁻¹.
Take G32U G41U U57C: the “self-cleavage kobs at 160 uM GlcN6P” value is less than 1e-05 s⁻¹.
With C10U C71A, the “self-cleavage kobs at 160 uM GlcN6P” value was less than 1e-05 s⁻¹.
With A36U U49G A52C, the “self-cleavage kobs at 160 uM GlcN6P” value is less than 1e-05 s⁻¹.
Still for that read-out and setting: under C10U G35U G59U C71G stands less than 1e-05 s⁻¹; under C34A A39C U49A U55C, less than 1e-05 s⁻¹; under A36C U54A, less than 1e-05 s⁻¹.
As to G32A A42G U56A C70A, the “self-cleavage kobs at 160 uM GlcN6P” value was less than 1e-05 s⁻¹.
On the same count and under the same terms, with G9A U27C the figure was less than 1e-05 s⁻¹; with A15G U46A A64C, less than 1e-05 s⁻¹; with G13C G35A A39U, less than 1e-05 s⁻¹.
In the case of C11G G37C G40A U45A C70U, the “self-cleavage kobs at 160 uM GlcN6P” value was less than 1e-05 s⁻¹.
On to A52C U54C, for which the “self-cleavage kobs at 160 uM GlcN6P” value is less than 1e-05 s⁻¹.
The same measure, in the same setting: with C10A A14G the figure was less than 1e-05 s⁻¹; with A39C A42C U46C, less than 1e-05 s⁻¹; with G29A G35C A52U U54A, less than 1e-05 s⁻¹.
On the same count and under the same terms, under U54A C58A G60C stands less than 1e-05 s⁻¹; under G9C C11A G37C U54A C70G, less than 1e-05 s⁻¹; under C10G A12C, less than 1e-05 s⁻¹.
Still for that read-out and setting: with C10U U31A the figure was less than 1e-05 s⁻¹; with A52C C61A, less than 1e-05 s⁻¹; with C11U G32C A42G G59U, less than 1e-05 s⁻¹.
A42G G51A C61G: the “self-cleavage kobs at 160 uM GlcN6P” value was less than 1e-05 s⁻¹.
The same measure, in the same setting: with U47C C58U the figure was less than 1e-05 s⁻¹; with C11G C16U C58G, less than 1e-05 s⁻¹; with U55A G60A, less than 1e-05 s⁻¹.
Take C10A A52U C68A: the “self-cleavage kobs at 160 uM GlcN6P” value was 7.21e-05 ± 2.5e-05 s⁻¹.
Still for that read-out and setting: under A33C G60A stands less than 1e-05 s⁻¹.
As for A12G G38U, the “self-cleavage kobs at 160 uM GlcN6P” value was less than 1e-05 s⁻¹.

In another data set the parent is B1. The data set can be described thus: self-cleavage kobs at 2500 uM GlcN6P; higher = faster cleavage; RNA array. The conditions noted are these: with glucosamine-6-phosphate. The gist of the method: as §1
As for A36U G41A C50A, the “self-cleavage kobs at 2500 uM GlcN6P” value was less than 1e-05 s⁻¹.
Same read-out and setting: under G7A G38C C70U stands less than 1e-05 s⁻¹.
Same read-out and setting: with C8G A14U A64G the figure was less than 1e-05 s⁻¹; with A6C G7C C10U G29C C58G, less than 1e-05 s⁻¹; with G9U G32C G51C C58U, less than 1e-05 s⁻¹.
In the case of C11G U47G, the “self-cleavage kobs at 2500 uM GlcN6P” value is less than 1e-05 s⁻¹.
On the same count and under the same terms, with G7A G38U the figure was less than 1e-05 s⁻¹.
Consider G7C U47C U49G, for which the “self-cleavage kobs at 2500 uM GlcN6P” value was less than 1e-05 s⁻¹.
Turning to C8A G40A G51C C58U, the “self-cleavage kobs at 2500 uM GlcN6P” value is less than 1e-05 s⁻¹.
On the same count and under the same terms, with C8A G37A G43U the figure was less than 1e-05 s⁻¹; with G7A A42C C50A, less than 1e-05 s⁻¹; with A6G A42G U46A U56A, less than 1e-05 s⁻¹.
On the same count and under the same terms, with U45G U47C C61U the figure was less than 1e-05 s⁻¹; with A6C G9A C67U, less than 1e-05 s⁻¹; with A6G U46A U69C, less than 1e-05 s⁻¹.
On the same count and under the same terms, with G40C U69A the figure was less than 1e-05 s⁻¹; with A6G C8G A15C U31G, less than 1e-05 s⁻¹; with C8U U30A A33C U55A, less than 1e-05 s⁻¹.
As for A6G A39U U49C, the “self-cleavage kobs at 2500 uM GlcN6P” value is less than 1e-05 s⁻¹.
Regarding A6C G9U U55G C58A G60U, the “self-cleavage kobs at 2500 uM GlcN6P” value was less than 1e-05 s⁻¹.
Consider C8G G13C C16G A52C, for which the “self-cleavage kobs at 2500 uM GlcN6P” value is less than 1e-05 s⁻¹.
As for G9A G62U U69G, the “self-cleavage kobs at 2500 uM GlcN6P” value is less than 1e-05 s⁻¹.
On to G9A G37C G38C, for which the “self-cleavage kobs at 2500 uM GlcN6P” value was less than 1e-05 s⁻¹.
Same read-out and setting: under C8U U31A A42G G66C stands less than 1e-05 s⁻¹; under C8A G13U A53G U65G, less than 1e-05 s⁻¹; under C8G A42G G66U, less than 1e-05 s⁻¹.
Same read-out and setting: with C8G U30A G59C the figure was less than 1e-05 s⁻¹; with G9C C11A G37C U54A C70G, less than 1e-05 s⁻¹; with G7C C16A U30A U49G G62C C71A, less than 1e-05 s⁻¹.
The same measure, in the same setting: under G7C C11A C16U stands less than 1e-05 s⁻¹; under C8U A48G G66U, less than 1e-05 s⁻¹.
On to G9A G40U A48U, for which the “self-cleavage kobs at 2500 uM GlcN6P” value was less than 1e-05 s⁻¹.
Still for that read-out and setting: under C11U G32C A42G G59U stands less than 1e-05 s⁻¹.
With A6C C16U G32U G51A, the “self-cleavage kobs at 2500 uM GlcN6P” value was less than 1e-05 s⁻¹.
Same read-out and setting: under A42G G51A C61G stands less than 1e-05 s⁻¹; under A6C U31A U57G C67A, less than 1e-05 s⁻¹; under G7A U54G G59A, less than 1e-05 s⁻¹.
The same measure, in the same setting: under G7C A52C C61U stands less than 1e-05 s⁻¹.
On the same count and under the same terms, with G7U C11A G37C C67U C71A the figure was less than 1e-05 s⁻¹.
Regarding G7A G38U C71G, the “self-cleavage kobs at 2500 uM GlcN6P” value was less than 1e-05 s⁻¹.
On the same count and under the same terms, with G7A A15C G32A G60C the figure was less than 1e-05 s⁻¹.
Same read-out and setting: with A33C G60A the figure was less than 1e-05 s⁻¹.

The variants in the next data set derive from B1. The data set can be described thus: self-cleavage kobs at 10000 uM GlcN6P; higher = faster cleavage; RNA array. The conditions noted are these: with glucosamine-6-phosphate. The gist of the method: as §1
In the case of C11G U47G, the “self-cleavage kobs at 10000 uM GlcN6P” value was less than 1e-05 s⁻¹.
Same read-out and setting: under A6C G9A C67U stands less than 1e-05 s⁻¹.
For the variant C10A A14G, the “self-cleavage kobs at 10000 uM GlcN6P” value amounted to 3.58e-05 ± 1.1e-05 s⁻¹.
In the case of C10G A12C, the “self-cleavage kobs at 10000 uM GlcN6P” value stood at 2.24e-05 ± 9.4e-06 s⁻¹.
Still for that read-out and setting: with A52C C61A the figure was less than 1e-05 s⁻¹; with U47C C58U, 4.92e-05 ± 8.1e-06 s⁻¹.
The same measure, in the same setting: under A33C G60A stands less than 1e-05 s⁻¹; under A12G G38U, less than 1e-05 s⁻¹.
